In ChEMBL document CHEMBL4888484, “Replenishing the malaria drug discovery pipeline: Screening and hit evaluation of the MMV Hit Generation Library 1 (HGL1) against asexual blood stage Plasmodium falciparum ,using a nano luciferase reporter read-out” (2022):
Among all 150,000 compounds or so, about 540 (0.36%) showed an effect of 50% or more. This is one part of the list.

System: Plasmodium falciparum
Assay: Primary screen in NF54 nanoGlo assay, in single point, at 2uM, 72h; a lower Z score goes with more inhibition
Type: functional, Erythrocyte
Conditions: timepoint 72 hour

Compound | % Inhibition [%] | Z score
Cc1ccc(NC(=O)c2ccc3[nH]cnc3c2)c(O)n1 | 4 | -0.47
Cc1[nH]c(=O)[nH]c(=O)c1S(=O)(=O)N1CCCCCC1 | -5 | 1.09
CC(=O)Nc1ccc(C(=O)NCc2nnc(C(=O)Nc3ccc(F)cc3)s2)cc1 | 6 | -1.05
COc1ccc(NC(=O)C2(NC(=O)[C@H]3CC(=O)N(C(C)C)C3)CCCC2)cc1OC | -11 | 1.26
COc1cc(CC(=O)N(C)Cc2nnc(C3CC3)n2C)ccc1Cl | -7 | 0.96
OCC[C@H]1CCCCCN1Cc1cn2cccnc2n1 | -5 | 0.49
CC(C)(CC(=O)N1CC2(CCOCC2)c2ccc(Br)cc21)C(=O)O | 29 | -3.25
Cc1cc(C)nc(N[C@@H](Cc2ccccc2)C(=O)N2CCOCC2)n1 | -10 | 1.26
Cc1cnc(NC(=O)Cc2c(C)nn(-c3ccc(Cl)cc3Cl)c2C)s1 | -7 | 0.97
CC(=O)c1c(F)cccc1N1CC[C@H](OCc2ccncc2)C1 | -6 | 0.84
Cc1cc2ncc(CNCc3ccc(-n4cncn4)nc3)cn2n1 | -16 | 2.3
CC1CCN(C[C@H]2CCCN(C(=O)c3ccoc3)CC2)CC1 | -1 | 0.13
Cc1cc(-n2nc(C)nc2-c2ccccc2N(C)C)ccn1 | -24 | 2.47
Cc1nc(C)c(C(=O)NC[C@H]2CCCN(C(=O)c3n[nH]c4c3CCCC4)C2)s1 | 0 | 0.02
O=C(NC(=O)c1cccc(C(F)(F)F)c1)OC[C@@H]1CCCN2CCCCC12 (some centres undefined) | -14 | 1.86
Cc1nc(Cc2c(C)noc2C)n(-c2ccc(F)cc2F)n1 | 6 | -0.77
CC1CCC(C)(C(=O)N[C@H]2CCOC3(CC(C(=O)O)C3)C2)CC1 (some centres undefined) | -7 | 1.33
COc1ccc(Cl)cc1NC(=O)Cn1c(=O)n(Cc2ccc(C(=O)NCc3ccc4c(c3)OCO4)cc2)c(=O)c2ccccc21 | -2 | 0.27
COc1c(CNCc2ccnc(-n3ccnc3C)c2)c(C)nn1C | -12 | 0.98
COCCNC(=O)NC(=O)CN(C)Cc1ccc(C)o1 | 1 | -0.06
CC(C)(C(=O)Nc1cc2ccc(Br)cn2n1)S(=O)(=O)C1CC1 | -2 | 0.24

Compound | % Inhibition [%] | Z score
CCC[C@H](NCC(C)C)C(=O)Nc1c(C)cc(C)cc1C | -17 | 2.2
CC(C)CN(CC(C)C)c1ccc(NS(=O)(=O)c2cccs2)cc1C(=O)O | -12 | 1.52
CC(=O)N1CCN(Cc2ccccc2N[C@@H](C)C2CCC2)CC1 | 32 | -3.62
CCCNC(=O)NCc1cc(-c2cccnc2)nn1C | 19 | -2.37
CN(C)Cc1ccccc1CN(C)C(=O)c1cccc(-c2ccco2)c1 | -6 | 1.13
O=C(Nc1ccccc1)N1CCc2scc[n+]2-c2ccccc21 | 37 | -4.73
Cc1nn(C)c(C)c1S(=O)(=O)N1CCC(N2CCc3sccc3C2)CC1 | 11 | -1.75
CO[C@H]1[C@H](NC(=O)Cc2ccccc2)c2ccccc2C12CCN(Cc1cccc3nccnc13)CC2 | -5 | 0.65
Cc1cc(N)nc(CNc2ccc(Cl)cc2)n1 | -10 | 1.38
O=C(Nc1ccc2c(c1)OCCCO2)c1ccc2ccccc2n1 | -15 | 2.07
CN(C)CCN(CCO)C(=O)NCc1cccc(F)c1F | 6 | -0.89
COCCCNC(=O)c1cc(Cl)c[nH]1 | -4 | 0.69
CN1CCC[C@@H]1CNC(=O)c1nnc2ccccc2n1 | -2 | 0.35
Cc1ccc(Oc2ccc(N(C)S(=O)(=O)c3ccc(OC(F)(F)F)cc3)cc2)nn1 | 5 | -0.62
CCN(CCCN1C(=O)NC(C)(C)C1=O)Cc1ccco1 | 4 | -0.49
Cc1nc(Cn2nccc2-c2ccncc2)cs1 | -11 | 1.74
CC(=O)Oc1c(-c2ccc(NC(=O)c3ccc(F)cc3)cc2)c(-c2ccc(F)cc2)nn1-c1ccc(F)cc1 | -6 | 0.79
O=C1NC2(CCN(Cc3cccc(F)c3F)CC2)Nc2ccc(Br)cc21 | -12 | 2.05
FC(F)(F)c1cc(N2CC[C@H](CN3CCCC3)C2)ccn1 | 4 | -0.77
Cc1ccc(-n2cccn2)cc1NC(=O)N1CCN(c2ccncc2Cl)CC1 | -9 | 1.32
O=C(c1cc2c(s1)CCCCC2)N1CCN(c2nccs2)CC1 | -10 | 1.95
